This test concerns the target WT rat Munc18-1 (rat, UniProt P61765). Nature of the test: cross-linking.
Sequence of UniProt P61765 (P61765 whole entry): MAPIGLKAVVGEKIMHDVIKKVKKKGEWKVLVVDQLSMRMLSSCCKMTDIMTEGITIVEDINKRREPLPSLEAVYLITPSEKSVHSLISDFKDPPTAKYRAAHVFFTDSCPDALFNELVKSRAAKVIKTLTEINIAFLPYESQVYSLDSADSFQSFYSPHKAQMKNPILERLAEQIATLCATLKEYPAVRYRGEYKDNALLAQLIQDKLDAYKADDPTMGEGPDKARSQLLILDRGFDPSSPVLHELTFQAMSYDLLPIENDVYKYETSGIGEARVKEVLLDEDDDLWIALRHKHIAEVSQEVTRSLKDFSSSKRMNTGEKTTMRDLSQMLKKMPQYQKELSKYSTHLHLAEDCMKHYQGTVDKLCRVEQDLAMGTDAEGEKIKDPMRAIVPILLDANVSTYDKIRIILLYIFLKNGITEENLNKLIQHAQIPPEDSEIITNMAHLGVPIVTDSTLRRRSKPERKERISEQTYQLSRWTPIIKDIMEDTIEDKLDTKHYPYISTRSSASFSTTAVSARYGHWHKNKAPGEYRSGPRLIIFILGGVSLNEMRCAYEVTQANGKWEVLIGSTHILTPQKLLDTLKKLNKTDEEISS

B1: synaptobrevin([…]) (domain or fragment)
chain: not shown
As for B1, the binding result is recorded as “binds”.

The record behind these values is PMC2834481 (Biochemistry, 2010).
